Whole data set: some 33,000 sequences, median “E-score (-0.5 to 0.5)” near -0.012, cut for the highest 2% near 0.29. The list shows a part of the results.
Target: T1, Ybr033w (UniProt P38073)
T1 sequence: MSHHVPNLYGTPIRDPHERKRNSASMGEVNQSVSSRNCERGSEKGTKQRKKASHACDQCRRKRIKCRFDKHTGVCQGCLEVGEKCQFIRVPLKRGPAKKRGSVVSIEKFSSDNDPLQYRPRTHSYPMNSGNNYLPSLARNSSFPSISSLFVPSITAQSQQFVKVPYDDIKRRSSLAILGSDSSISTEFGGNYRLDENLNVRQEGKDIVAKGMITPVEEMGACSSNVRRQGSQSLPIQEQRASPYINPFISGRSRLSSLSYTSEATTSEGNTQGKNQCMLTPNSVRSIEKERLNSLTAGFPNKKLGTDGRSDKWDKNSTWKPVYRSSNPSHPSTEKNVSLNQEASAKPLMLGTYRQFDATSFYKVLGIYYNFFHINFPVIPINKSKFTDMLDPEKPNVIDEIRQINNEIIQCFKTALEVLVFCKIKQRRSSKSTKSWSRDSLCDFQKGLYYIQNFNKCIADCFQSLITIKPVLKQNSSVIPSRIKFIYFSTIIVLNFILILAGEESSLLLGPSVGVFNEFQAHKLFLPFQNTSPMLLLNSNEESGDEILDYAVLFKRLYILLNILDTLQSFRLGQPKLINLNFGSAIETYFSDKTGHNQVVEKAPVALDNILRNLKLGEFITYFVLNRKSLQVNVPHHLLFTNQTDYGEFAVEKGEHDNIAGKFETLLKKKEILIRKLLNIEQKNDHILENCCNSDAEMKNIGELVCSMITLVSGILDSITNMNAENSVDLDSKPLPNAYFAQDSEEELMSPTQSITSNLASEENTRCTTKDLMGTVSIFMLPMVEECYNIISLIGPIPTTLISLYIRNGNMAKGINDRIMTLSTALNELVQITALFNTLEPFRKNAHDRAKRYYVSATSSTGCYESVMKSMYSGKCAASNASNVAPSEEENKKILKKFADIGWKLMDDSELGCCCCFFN
Assay: PBM E-score (8-mer binding enrichment) (E-score (-0.5 to 0.5)); higher = stronger / more preferred TF binding; most listed sequences are background and not binding sites
Conditions: protein concentration: 200 nM; construct: GST-full length
In short: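 Detection of bound protein used fluorescent anti-GST, with scans normalised by masliner. The proteins were GST-tagged yeast transcription factors applied at about 100-200 nM to universal all-10-mer Agilent arrays made double-stranded by primer extension. Each ungapped eight-base word, pooled with its reverse complement, was scored with an E-score from the Universal PBM Analysis Suite.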

Sequence	PBM E-score
ATGGGACG	-0.226
CAAAGGGC	-0.305
CTTTTAAA	0.026
CCGCAGCA	-0.0607
ATTACCTG	0.0402
AAGGCCGT	-0.0585
ACCGCATG	0.0199
AGGCGCCG	-0.203
AGTGTTAC	0.129
ACGCTTGA	0.0966
CTAGAGTA	0.118
AATTCGTC	0.211
CTCCCTCA	-0.237
AACCCTTC	-0.0208
ATCAATAG	0.178
CCACGTTA	0.0945
ATAGGACA	-0.0693
AAATGGGG	-0.265
ACTATCCA	-0.0306
CGCGCAAC	-0.0268
ATGGACCA	0.00537
GTGTGTTA	0.292
ATCCGTGC	0.0405
CGGCGGAA	0.0216
AATCTAAT	0.168

Sequence	PBM E-score
CATAGGAA	0.0524
TATTTGGA	0.082
GGCTATGA	-0.105
GAGGACCA	-0.0343
CCACGAGA	-0.0169
AGTCCTCC	-0.237
CCCAGACA	-0.168
GCACTGAC	-0.165
CCCGATGC	-0.222
GCCCTGGA	-0.191
ACACAAAC	0.0791
ACACCAGT	-0.31
AGAACCCA	-0.0512
CTTGAAGC	-0.11
GAACTCAC	-0.0937
ATAGGCGC	-0.145
ATTCCAGC	0.0338
ACCCCTAG	-0.136
ACGTATAA	0.201
CCCCGTCA	-0.167
GAATTTGC	0.203
GGTGAGAC	0.0001
CGGATGCA	-0.199
AGTCTTCC	0.0281
AGGAAAGC	-0.118

Sequence	PBM E-score
ACTAAAGT	0.141
CGACAATC	-0.00125
AGCACCAC	-0.129
CATAAAGA	0.219
CTACGAAA	0.0387
AATACCGT	0.221
CTCTGACA	0.0954
TCAGTACA	0.0397
GCCGTGCC	-0.179
AACTGCAA	0.136
ATGTTCCC	0.199
CACCGTGC	-0.202
CCCGGACC	-0.251
CCGCGGAA	-0.0214
CGAAGGGA	0.0713
CGGTCTCC	-0.218
ACGATACG	0.0322
GGCAACGA	-0.0716
GAATCGGA	0.0289
CTAGTCCA	-0.0773
CCCGACCG	-0.144
AGTTTGAT	0.195
CAAAGTGA	0.137
CAACCCCA	-0.106
CAGACACC	-0.0856

Sequence	PBM E-score
AGTGATCA	0.01
AGACGTAT	0.0171
CCAAACCA	-0.107
GGCGCACC	-0.261
AACTGCAG	-0.0397
GTTATTAA	0.229
ATGTCAAA	0.217
AAACACTT	0.165
GACACTTA	-0.0142
GCTGCAGA	-0.101
AACGCGAG	0.0539
TAGGATCA	0.195
ACACGCAA	0.142
GCAACCCA	-0.107
GCCCCGGA	0.0163
ACTGACCC	-0.198
CGGGTCTA	-0.11
AGTAGTGG	0.0743
AATTAGAA	0.147
ACATGTCA	-0.0171
AGGCGGGC	-0.34
ACCCGTAC	0.00422
ATAAAGGC	0.0972
AGAACTCA	0.111
CACCTCGA	0.155

Sequence	PBM E-score
ACTCAAAA	0.219
AGTCGTTC	-0.206
AGATGGAT	-0.0291
ATTAGAGG	-0.0176
CCTGCGCC	-0.237
ATTCTTAC	0.251
CCCAGGTC	-0.314
TCACTGAA	0.0939
AAAACTCG	0.221
CATCTCTC	-0.0755
CCCCAGAC	-0.304
ACGCAACG	0.0621
ATATAGAC	0.142
CACCGTAA	0.166
AGAACGGA	-0.0246
AGTCCGAC	-0.113
ATGGAGAA	0.157
GGAAATAC	0.183
AGCGTTAC	-0.0321
CTGTCAGA	0.00116
CCTCGACA	-0.206
CTACAGTA	0.0929
ATCCGTAG	-0.00059
TAAGATGA	-0.0515
CTGCAATC	0.107

Sequence	PBM E-score
GACAATAC	0.199
CTAATCGC	-0.0175
CGAGAAAA	0.0269
CTCAGACC	-0.029
AGTAATAT	0.336
CAGCCACC	-0.197
GTGAGGTA	0.0102
CAGGGCTC	-0.284
CACAAAAG	0.149
AAGACGCT	-0.0835
GCGAGGCA	-0.216
TATGAACA	0.17
AAATGGAA	0.177
ATTTAATA	0.325
AAGAAGCA	0.103
GCGCTACC	-0.0863
TTATCAAA	0.275
CGTAGCGA	-0.0425
ACTCGAAT	-0.0149
CAGCTTCA	-0.0893
TCAGCGAA	0.0175
CACACGAG	-0.277
ATTTTGTA	0.246
AAACACGA	0.217
ATTCTCCG	0.305

Sequence	PBM E-score
AGATTATA	0.246
CCGCAAGG	-0.00021
ATTGCGGA	0.127
GAGTCCAC	-0.192
CTAACGCA	0.0758
AAAACTGA	0.0327
AGTCTGAC	-0.155
GATGGCAC	-0.258
CGCGACCA	-0.113
GGTGGGTA	0.049
ATCCTTCG	0.059
CACGATTA	0.0858
ACCGTAAG	0.0895
CCGCGGGA	0.055
ATGGGCTA	0.205
CCGGAGGA	-0.0855
ACTAACTA	0.0153
CAAAAGTA	0.16
AAGTCTCG	-0.205
GGTTTTTA	0.135
AGTTGGGC	-0.103
GACCGAAA	0.0561
CTCTCCAA	-0.189
CCGTTGAG	0.023
ATGGCACA	-0.0621

Sequence	PBM E-score
TCTTTTAA	0.133
AGGCGGTG	-0.207
CAGCCCTC	-0.203
CCTCTGCA	-0.134
ACTAGCCG	-0.0895
TCATGCCA	0.0753
CTATGGCA	-0.237
CCTACGAC	-0.0251
CGCTGAGC	-0.0727
TCGTAAAA	0.132
CCAACCAA	-0.128
ACACGGCC	-0.183
TCTCTGCA	-0.162
AAGTTGTA	0.186
CGGGGATA	-0.103
CCACATCG	0.0256
ATAATTTG	0.35
ACGCCACC	-0.171
CGATTATC	0.07
AAACAACA	0.182
TCTGAAGA	0.00537
GCTCGATA	0.0813
AGATCTCA	-0.0281
CGGGGTCC	-0.324
GAGAACGA	-0.0798

Sequence	PBM E-score
AAGGGTCG	-0.0576
GGCTGTAA	-0.0501
AGGCATTA	-0.0439
CATCGACG	-0.0899
CGCATCCA	-0.0928
GTAGTGAC	-0.081
GGCCATGA	-0.0003
GTTGTACA	0.188
GCTTATGA	-0.0277
GCCGTTGA	0.0853
ATAGCTAC	-0.00419
ACGACGCT	-0.174
GCTCGAGA	-0.133
CCCGTTAA	-0.192
ACAATAAA	0.14
AACATTGG	0.043
AGGTGTTA	0.0646
ACTGTCAC	0.00911
CAGGGTTA	-0.0583
AGACATCA	-0.0142
CGACGTCC	-0.19
CCCCCGGC	-0.433
GATCCCGA	-0.0648
ATATGGAG	0.0461
AGGTCCCG	-0.0489

Sequence	PBM E-score
GTAAGGCA	-0.196
GTCCATCA	-0.0703
CACGGCTG	-0.221
GTACCGAA	-0.191
ACCGTACC	-0.158
ACGAATTC	0.0691
CGCACCAA	0.0188
GGGATCGA	-0.0518
CTGGGAGA	-0.155
CAGCCCCC	-0.434
AGCTGGGG	-0.0432
GGCTGAGA	-0.171
CGTCCTCA	-0.128
AAAAACAA	0.321
GACAACTC	0.00718
CCATGGTC	-0.138
ACCCCCTC	-0.378
ATGCAGAG	-0.102
ATGGCGAA	0.165
ATAGTTGC	0.199
CAGGTGGC	-0.162
CGACCTCC	-0.00382
TACAGAAA	0.169
CGTAGTCA	-0.186
ACCAGCCG	-0.0373

Sequence	PBM E-score
ACTTGAAT	0.174
GAGGATAC	-0.0653
CCAGTTCA	0.116
AATCATTA	0.227
CCTCAGTA	-0.135
CATCGCGA	0.104
CGGCACCC	-0.207
CCGGTCAA	-0.115
CAAGACTC	-0.1
AGCTCAAA	0.143
ATAAGGCG	0.017
CGGTCAAA	0.0995
GGAGGAAC	-0.147
AGGCTTGA	-0.047
ATCTCAAG	0.0819
CGACGTGA	-0.0087
AGACACTG	0.105
ATCAGCGC	-0.0697
GCCTCCGA	-0.125
CCGCTCAA	-0.0575
CTGCATCA	0.181
CCTACTTC	-0.0544
AAAGGGGT	-0.342
AACAACGG	-0.0283
ATATACAC	0.262

Sequence	PBM E-score
AGTCAATG	0.0295
CTAAATAG	0.187
GATCGGGA	-0.309
CCTGTGTC	-0.273
AGGGGAAG	-0.272
CGTAGTAC	0.0943
CCATGTAG	-0.0651
AGCTCTCG	-0.152
ATCTGACA	-0.0543
AATGCCCT	-0.153
AAGAAAGA	0.095
ACGGTCGG	-0.239
TGATCGCA	-0.107
GGTGCCGA	-0.0186
CTAGAAAC	-0.00294
AGATGAGG	-0.264
GAAACCTC	-0.0461
AGGAGTGC	-0.0831
ACAGAAAC	0.237
CGTATCTA	0.108
CAGGTAAC	-0.106
CGATATCG	0.174
CCCTCAAC	-0.204
AGTAACCC	-0.056
TTACGAAA	0.133

Sequence	PBM E-score
AACTATTG	0.279
AAGCCATT	0.0741
CCCAAAGC	-0.0545
AGTGACAA	0.109
CCTCTCCG	-0.281
TCACGACA	0.0796
ACGACTCG	-0.0965
AGTAGGCA	0.26
GAATATAA	0.131
CTCGGGTC	-0.144
AGGAGGCC	-0.34
CGGTAATA	0.172
GATACTAC	0.0161
ATAGCTTC	0.135
GCCCGGCC	-0.332
ATTCCAAC	0.103
AGCCGGAA	0.22
GCCAACCA	-0.147
CGTGCGTA	-0.0281
AGATTAGG	0.00497
GGCGGATA	0.0943
AAACATTC	-0.0265
CGCCTTCC	-0.23
CGACGACC	-0.0467
AAGGTTAA	0.0592

Sequence	PBM E-score
ACGTAGCA	0.00827
AGCCTTTG	-0.0932
AACGGAAT	0.235
ACAGCCGA	-0.152
GAATGTAA	0.229
CGCGCTAA	0.196
CGAGCACA	0.00514
CCAGTCGG	-0.0905
GATAGACA	0.0674
ATCCTGTG	-0.0447
ATTAGTAC	0.12
AAGTATGG	0.0503
AATAATTA	0.372
ATGGGCGG	0.0599
CTAAGATC	0.0586
GCGTCCGA	-0.16
GGTAGGTA	0.0647
CCCAATAG	-0.111
AGCGTTTC	-0.113

Reference: the supplement of paper PMC3334620
